# Test results from publication PMC4336329 (PLoS ONE, 2015).
# About 14,000 (4.5%) of roughly 310,000 compounds showed an effect of 50% or more. Effects have a minus sign here. The list shows a part of the results.
# Biological target: human ether-à-go-go-related gene (hERG) potassium channel (human, UniProt Q12809)
# Test: primary screen, population patch clamp on CHO cells stably expressing hERG
# 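Further: peak tail current of the secondary pulse compared with the same well before compound.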
# human ether-à-go-go-related gene (hERG) potassium channel, sequence (Q12809 whole entry, looked up): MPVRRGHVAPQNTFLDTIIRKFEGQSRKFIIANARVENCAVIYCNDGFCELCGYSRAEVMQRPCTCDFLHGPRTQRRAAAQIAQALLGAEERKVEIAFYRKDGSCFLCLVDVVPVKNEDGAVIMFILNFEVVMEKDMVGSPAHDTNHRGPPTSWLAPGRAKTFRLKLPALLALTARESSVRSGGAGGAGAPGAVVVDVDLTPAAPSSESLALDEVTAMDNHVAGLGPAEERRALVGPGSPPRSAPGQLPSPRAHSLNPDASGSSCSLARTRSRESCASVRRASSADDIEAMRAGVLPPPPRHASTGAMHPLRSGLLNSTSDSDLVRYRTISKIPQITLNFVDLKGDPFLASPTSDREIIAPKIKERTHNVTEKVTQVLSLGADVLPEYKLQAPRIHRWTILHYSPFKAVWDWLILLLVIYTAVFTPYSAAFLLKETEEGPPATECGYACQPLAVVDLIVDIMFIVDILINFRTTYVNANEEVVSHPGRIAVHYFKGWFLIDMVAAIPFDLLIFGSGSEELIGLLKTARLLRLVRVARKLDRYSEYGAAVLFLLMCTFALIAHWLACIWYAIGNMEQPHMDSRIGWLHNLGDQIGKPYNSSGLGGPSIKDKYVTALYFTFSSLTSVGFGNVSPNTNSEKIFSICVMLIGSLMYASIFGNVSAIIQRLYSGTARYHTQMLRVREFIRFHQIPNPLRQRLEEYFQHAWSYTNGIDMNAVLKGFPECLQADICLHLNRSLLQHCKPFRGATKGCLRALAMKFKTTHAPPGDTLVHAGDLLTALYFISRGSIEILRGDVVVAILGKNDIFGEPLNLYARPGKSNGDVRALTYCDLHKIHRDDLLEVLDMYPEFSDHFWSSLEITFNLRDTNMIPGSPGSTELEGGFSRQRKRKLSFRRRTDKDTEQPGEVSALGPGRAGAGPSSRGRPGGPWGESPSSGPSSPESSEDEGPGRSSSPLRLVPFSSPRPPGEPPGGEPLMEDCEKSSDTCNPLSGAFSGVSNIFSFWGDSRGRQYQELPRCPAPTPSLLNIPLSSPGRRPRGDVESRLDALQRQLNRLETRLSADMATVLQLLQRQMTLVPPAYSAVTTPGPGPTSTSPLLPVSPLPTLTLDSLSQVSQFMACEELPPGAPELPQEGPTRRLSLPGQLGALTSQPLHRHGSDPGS
row,SMILES,"hERG current change (%, negative = inhibition) at 10uM"
1,O=C1CC[C@H](N2C(=O)c3ccccc3C2=O)C(=O)N1,17.1%
2,O=C(NCC1CCCO1)c1cc(-c2ccc(F)cc2)no1 (centres unmarked),0.634%
3,NC(=O)C(=O)N/N=C/c1cccc(C(F)(F)F)c1,2.49%
4,O=C1CC(c2cccs2)c2cc3c(cc2N1)OCCO3 (centres unmarked),2.53%
5,C/C(=N\NC(=O)c1cc2c(s1)CCC(C)C2)c1cccnc1 (centres unmarked),4.68%
6,Cc1ccc(-c2cc(-c3ccc(F)cc3)c(C#N)c(N)n2)o1,0.139%
7,COc1ccc(S(=O)(=O)N(C)CC(=O)Nc2cccc(C(C)=O)c2)cc1,4.78%
8,O=[N+]([O-])c1cc(Cl)cc(/C=N/NC(=S)Nc2cc(S(=O)(=O)N3CCOCC3)ccc2Cl)c1O,24.3%
9,O=C(N/C(=C\c1ccc2c(c1)OCO2)C(=O)N1CCOCC1)c1cccs1,-42.8%
10,Cc1nnc(SCC(=O)Nc2nccs2)o1,6.02%
11,O=C(NCCN1CCCCC1)c1ccc(Oc2cc(Cl)cc(Cl)c2)o1,-54.8%
12,Cc1ccc(N(CC(=O)NC2CCCC2)C(=O)c2nsc(Cl)c2Cl)cc1,-1.67%
13,COC(=O)CC(NS(=O)(=O)c1cccs1)c1cccc2ccccc12 (centres unmarked),1.97%
14,CSc1nc2sc3c(c2c(=O)[nH]1)CCC(C)C3 (centres unmarked),22.3%
15,CCOc1ccc(/C=N/NC(=O)C2(O)c3ccccc3-c3ccccc32)cc1,4.13%
16,CC1CCN(CC(=O)Nc2ccccc2-c2ccccc2)CC1,-25.1%
17,COc1ccc(Br)cc1S(=O)(=O)NCc1ccccc1,-8.37%
18,COc1ccc([N+](=O)[O-])cc1NC(=O)Cn1ccsc1=N.Cl,-11%
19,Cc1oc2cc3oc(=O)c(CCC(=O)NCCCN4CCCC4=O)c(C)c3cc2c1C,-8%
20,CCOc1ccc(CCNC(=O)c2cc(C)on2)cc1OCC,11.9%

row,SMILES,"hERG current change (%, negative = inhibition) at 10uM"
1,COc1ccc(N2CCN(C(=O)COc3ccc4ccccc4c3)CC2)cc1,5.36%
2,CC1(C)Cc2ccccc2C(N/N=C/c2ccc(Cl)cc2)=N1,-2.4%
3,Cc1cccn2c(=O)c(/C=C(\C#N)C(N)=O)c(N3CCN(c4ccccc4)CC3)nc12,-48.8%
4,CCCCN(CC)Cc1ccc(CNC(=S)Nc2cccc(F)c2)o1,-43.7%
5,O=C(Nc1ccccc1Cl)Nc1cccc2cccnc12,14.9%
6,CC(=O)C1=C(O)C(=O)N(Cc2cccnc2)C1c1ccccc1Cl (centres unmarked),7.25%
7,CNc1nc(C)c(C(=O)OCc2ccccc2)s1,15.9%
8,O=C(Nc1ccccc1)NC1CCS(=O)(=O)C1 (centres unmarked),-0.437%
9,CC(C)C(CC(=O)NCc1ccco1)c1ccco1 (centres unmarked),19.6%
10,NC(=O)c1ccc(OCC2CCCO2)cc1 (centres unmarked),11.4%
11,C/C(N)=C(/C#N)C(=O)COC(=O)CCS(=O)(=O)c1ccccc1,12.1%
12,C/C(=N/NC(=O)c1sc(NS(=O)(=O)c2ccccc2)nc1C)c1ccccc1,10%
13,O=C(c1ccco1)N1CCN(c2ncnc3c2[nH]c2ccc(Cl)cc23)CC1,-65.2%
14,COc1ccccc1OCC(=O)Nc1ccccc1C(=O)NCc1ccco1,-10.4%
15,Cc1c(C=O)c2ccccn2c1C(=O)c1cccs1,0.847%
16,CNC(C)C#Cc1ccc2sc3cc(OC)c(OC)cc3c(=O)c2c1 (centres unmarked),4.04%
17,O=C1/C(=C/c2cccnc2)SC(=S)N1CC1CCCO1 (centres unmarked),22.7%
18,CC(=O)N1CCN(S(=O)(=O)c2cccc(C(=O)NC3CC3)c2)CC1,14.9%
19,COc1ccc(C(=O)COC(=O)[C@H](C)Nc2ccc(C(F)(F)F)cc2[N+](=O)[O-])cc1,15.9%
20,CC(=O)c1cnc2c(-c3cccc(Br)c3)cnn2c1C,9.14%

row,SMILES,"hERG current change (%, negative = inhibition) at 10uM"
1,CCCC(=O)NC(Nc1ccc(S(=O)(=O)Nc2cc(C)on2)cc1)(C(=O)OCC)C(F)(F)F (centres unmarked),23.5%
2,CCn1c2ccccc2c2cc(C3C(C#N)=C(N)Oc4n[nH]c(COC)c43)ccc21 (centres unmarked),11.4%
3,O=S(=O)(NCCCc1ccccc1)c1ccc(Br)cc1,-9.3%
4,Cc1ccn2cc(CC(=O)O)nc2c1,-7.18%
5,CCOC(=O)C(CSCc1ccccc1)NC(=O)OC(C)(C)C (centres unmarked),-14.8%
6,CCOc1ccc(NC(=O)CN2C(=O)CSc3ccc(S(=O)(=O)N4CCCC4)cc32)cc1,-21.2%
7,O=C(CN1CCCC1)N1CCCC(c2ccc(F)cc2)c2ccc(F)cc21.O=C(O)C(=O)O (centres unmarked),-32%
8,CC1(C)CC(=O)c2cnc(NCc3ccco3)nc2C1,3.47%
9,Cc1ccc(CNS(=O)(=O)c2ccc3c(c2)NC(=O)C(C)S3)cc1 (centres unmarked),-1.22%
10,O=C(Nc1ccccn1)c1ccc(Cl)c([N+](=O)[O-])c1,3.94%
11,O=[N+]([O-])c1ccc(C(O)CSC(=S)N2CCCCC2)cc1 (centres unmarked),-3.13%
12,Cc1cc(C)c(NC(=O)CS)c(Cl)c1,6.4%
13,O=C(CN1CCN(C(=O)c2ccccc2)CC1)Nc1cc(S(=O)(=O)N2CCCC2)ccc1Cl,-32.8%
14,S=C1NC[C@H](Cc2ccccc2)N1CCc1cccc2ccccc12,17.6%
15,O=C(N/N=C/c1ccc(O)cc1O)C(=O)N/N=C/c1ccc(O)cc1O,14.1%
16,CC(c1ccccc1)N1CC(C(=O)O)CC1=O (centres unmarked),10.7%
17,COc1ccc(CCNC2CC(=O)N(C)C2=O)cc1OC (centres unmarked),-8.54%
18,Cc1ccc(CNC2CCCCC2)s1.Cl,-13.9%
19,CCOc1ccc(CN(C)CC(=O)Nc2ccc3c(c2)CCC3)cc1OC,-39%
